The source of these data is the supplement of paper PMC11417369.

The list shows a part of the results.

The test deals with PfAP2-HC AP2 domain (GST-tagged). The test can be described thus: gcPBM binding intensity (ln(normalized median fluorescence intensity)); higher = stronger DNA binding. A digest of the protocol: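 Binding of GST-tagged P. falciparum DNA-binding domains, expressed in E. coli and used at about 25 μg on average, was carried out for 1 h in 1× PBS containing 1% milk, 0.2 mg/ml BSA, 0.5% salmon testes DNA and 0.03% Triton X-100. The target was an Agilent 4 × 180k array of primer-extended double-stranded 36-bp intergenic genomic probes plus negative controls, read with Alexa488 anti-GST antibody at 488 nm. Binding intensity is the highest Masliner-normalised natural-log median intensity across replicate spots of either probe orientation.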
“ATTAATATGAATAAAACACACATATATAACTTGTAA [CACACA_site6989]”: the “gcPBM binding intensity (ln)” value stood at 9.79.

Consider “TGATAATAAGCATACACACACACACCCAAAAAAAAA [CACACA_site721]”, for which the “gcPBM binding intensity (ln)” value was found to be 11.2.

As for “AACTAAATGTTATTCGCACACGGAATTTATTTAATG [CACACA_site3664]”, the “gcPBM binding intensity (ln)” value was 9.8.

Consider “AAATAAAAAAAAAAAAAAAATAACTTAAATGGGATA [TGCATGCA_negctrl_site595]”, for which the “gcPBM binding intensity (ln)” value was determined as 9.51.

Consider “TTTTTTTTTTCTTTTTTTCTCATGAAATTCTAAATG [CACACA_negctrl_site918]”, for which the “gcPBM binding intensity (ln)” value stood at 9.37.

On to “ATATATATATATATATATATATATATGATTATTACT [GTGCAC_negctrl_site109]”, for which the “gcPBM binding intensity (ln)” value turned out to be 9.64.

Turning to “CCTATAAAACCATATACACACATATAAATAAAAAAA [CACACA_site7809]”, the “gcPBM binding intensity (ln)” value came out at 9.96.

For “TAAACTATATTTACATGTACATATAATATTAAATAA [XGTACX_site3528]”, the “gcPBM binding intensity (ln)” value is 9.5.

Turning to “AAAAAAAAATTAGGGGTGCCATTTGCTGCTGTGCTT [GTGCAC_site9913]”, the “gcPBM binding intensity (ln)” value was 9.59.

On to “TTTTGTATTTCTCACACACACATAAGTAAACAATAA [CACACA_site5105]”, for which the “gcPBM binding intensity (ln)” value turned out to be 10.1.

In the case of “TAGTAAAAGATATACACACACCAAAAAATATAATTA [CACACA_site7142]”, the “gcPBM binding intensity (ln)” value came out at 10.5.

“TATATATGGGTACTAATTCCTTTAATTTCTTTAATT [CACACA_negctrl_site949]”: the “gcPBM binding intensity (ln)” value amounted to 9.53.

Regarding “AATTATATTCAAAATGGTACACACAATATTTAATTG [XGTACX_site5521]”, the “gcPBM binding intensity (ln)” value is 9.82.

In the case of “AATAGATATATAAATACACACAAACATACCTATATA [CACACA_site7823]”, the “gcPBM binding intensity (ln)” value stood at 10.6.

Consider AAACAAAGGGAACATGTGCACTTACAAAAAAAAAGA, for which the “gcPBM binding intensity (ln)” value stood at 9.75.

Take “TCACACCTTTTTGGTTGTACTTAAATTTCTTTTTTT [XGTACX_site6438]”: the “gcPBM binding intensity (ln)” value is 9.5.

As to “TTCCCTTATTTTGTATGTACACAATTTATCATGTTG [XGTACX_site2896]”, the “gcPBM binding intensity (ln)” value was determined as 9.98.

“ATATATATATATGCATGTACATATATTTGTTATATC [XGTACX_site3197]”: the “gcPBM binding intensity (ln)” value is 9.71.

Turning to “ATTTATTTTAATTTTTTTTTTTCTCTTTTGGATCTA [CACACA_negctrl_site1408]”, the “gcPBM binding intensity (ln)” value came out at 9.38.

With “TTCTCAAAGTTTACGTGTACATAAATTATATAAATG [XGTACX_site2622]”, the “gcPBM binding intensity (ln)” value was 9.5.

With “TGTAATATGAAATGTGTACACACGCACCCACAAAAA [CACACA_site8948]”, the “gcPBM binding intensity (ln)” value is 10.3.

Consider “ATTAGGCATATTTTCTGTACACAATAATAAAAAAAA [XGTACX_site3957]”, for which the “gcPBM binding intensity (ln)” value turned out to be 9.29.

As to “AATGAATTTAATTCTACTATTTTTTTTTTAAATATT [XGTACX_negctrl_site296]”, the “gcPBM binding intensity (ln)” value was 9.47.

On to “GACAGATTATAGCATAGTACTCATACATACATACAT [XGTACX_site1252]”, for which the “gcPBM binding intensity (ln)” value was found to be 9.77.

“TACATACATACATACACACACACATCTATATTTATA [CACACA_site6171]”: the “gcPBM binding intensity (ln)” value is 10.6.

In the case of “TTTCAAAAATTATTTTGTACATATAATTAATATACG [XGTACX_site512]”, the “gcPBM binding intensity (ln)” value was determined as 9.48.

Take “ATTAAATACATTAACACACACACAAATAAATACATA [CACACA_site5583]”: the “gcPBM binding intensity (ln)” value came out at 10.4.

On to “TTTTATTATTTGTCTTGTACTCATTGTAAGAGTATG [XGTACX_site1538]”, for which the “gcPBM binding intensity (ln)” value is 9.53.

As for “AAAAAAAAAAAAATGGTGCAACTTTGTTAAAGGAAA [GTGCAC_site9950]”, the “gcPBM binding intensity (ln)” value amounted to 9.72.

On to “ATTTAAAAGTTGGTAGTGCATTAAAAATAACAAAAA [GTGCAC_site9835]”, for which the “gcPBM binding intensity (ln)” value came to 9.6.

With “AATTTCTTCCATTGTAGTACTCAATTTTTTTTTGTT [XGTACX_site5847]”, the “gcPBM binding intensity (ln)” value amounted to 9.87.

Turning to “GTGTAATATTATATATATATATATAATATATATACA [CACACA_negctrl_site263]”, the “gcPBM binding intensity (ln)” value is 9.56.

As for “CACATATACAAAAAGAAATGTTTAGTTGAAAATTAA [CACACA_negctrl_site1407]”, the “gcPBM binding intensity (ln)” value is 9.43.

For the sequence “GTAATAAATTAAATATGTACATATTAAAATTAAGGA [XGTACX_site2290]”, the “gcPBM binding intensity (ln)” value was 9.86.

With “ATTGATACATCCAATACACACTACAGATAATGATGT [CACACA_site5098]”, the “gcPBM binding intensity (ln)” value came to 9.78.

Turning to “GAATTAATTTTAAAACGTACATGGGTGTATTTACAC [XGTACX_site5939]”, the “gcPBM binding intensity (ln)” value worked out at 9.53.

For the sequence “CATAATACAAATGTGATACCTGAAAATGACTTATTA [CACACA_negctrl_site994]”, the “gcPBM binding intensity (ln)” value came to 9.72.

Take “TTCTTTTTTGTAATAACACACACACTAACAGAAAAA [CACACA_site8646]”: the “gcPBM binding intensity (ln)” value is 10.2.

Consider “TGCTACATAATATGTACACACATATACATATTTATA [CACACA_site6545]”, for which the “gcPBM binding intensity (ln)” value stood at 9.93.

For the sequence “GTATGATTAAATAAAGGTACACTTATATTTATTTAT [XGTACX_site6966]”, the “gcPBM binding intensity (ln)” value turned out to be 9.57.

Regarding “TATCACATTTATGAGAGTACATAATTAATTCATGAT [XGTACX_site7850]”, the “gcPBM binding intensity (ln)” value came out at 9.53.

For the sequence “TTTTATTTTATATAACAACAAAATGGAAATATATAT [GTGCAC_negctrl_site71]”, the “gcPBM binding intensity (ln)” value stood at 9.41.

On to “GTCAATATTTAGATATGTACTAAGGAGTGCTATATA [XGTACX_site222]”, for which the “gcPBM binding intensity (ln)” value came out at 9.61.

“TAAATGAAAATAAATTAACACACAATTTTAATATTG [CACACA_site8360]”: the “gcPBM binding intensity (ln)” value is 9.66.

Consider “ATATTATGAAGGGATATTTTCAAAAATATTAGGAGA [CACACA_negctrl_site942]”, for which the “gcPBM binding intensity (ln)” value was 9.62.

For “AATTATACATATATTTAACACACATTTTATAAAGTG [CACACA_site8362]”, the “gcPBM binding intensity (ln)” value came to 9.66.

Take “ATATATATATATAATTGTACATGTGTGTATAATTTG [XGTACX_site2417]”: the “gcPBM binding intensity (ln)” value is 9.8.

Regarding “TTGGAATAATATAAATAAATAAATATATATATATAT [CACACA_negctrl_site900]”, the “gcPBM binding intensity (ln)” value amounted to 9.5.

On to “ATACAACAGATATATACACACATATAACAATAATAA [CACACA_site7560]”, for which the “gcPBM binding intensity (ln)” value worked out at 10.

Consider “AAAAAAAAAAAATGTGCACACGCGTACACCCAAAAA [CACACA_site8614]”, for which the “gcPBM binding intensity (ln)” value was 9.98.

Take “TTTCTTTTTGTTCGTGTACACACATGAAATTTATAA [CACACA_site8466]”: the “gcPBM binding intensity (ln)” value was 9.82.

On to “CAATTTTTATGTGTGTGTACTCATTTGTTTTATAAA [XGTACX_site406]”, for which the “gcPBM binding intensity (ln)” value was 10.

For the sequence “TCATAGTATGGACACACACACACACCCATATATATA [CACACA_site5033]”, the “gcPBM binding intensity (ln)” value turned out to be 11.2.

For “TATTATATTAATGATGGTACAGTGTATATATATAAT [XGTACX_site1286]”, the “gcPBM binding intensity (ln)” value was 9.61.

With “ACATATAATATAAAGTGTACAAGAAAATAAAAATAA [XGTACX_site1273]”, the “gcPBM binding intensity (ln)” value was determined as 9.95.

On to “TTTCCATATTTTTAAAGTACATATTTCCGTTTCCAC [XGTACX_site7832]”, for which the “gcPBM binding intensity (ln)” value came out at 9.58.
